According to the supplement of paper PMC8728848:
The list shows a part of the results.

Key:
Experiment in all cases: glycan array binding signal (z-score within array); higher = stronger binding
Conditions in all cases: glycan notation: IUPAC condensed, linker removed
[1] = target: Neu5Ac(a2-8)Neu5Ac
Method in brief: (§1)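 Glycan array data were curated from 3228 arrays in the Consortium for Functional Glycomics database and kept only where the protein sequence was available. Glycan names were converted to IUPAC-condensed notation, and columns mapping to the same glycan were averaged. The binding signal is a within-array Z-score, averaged across arrays of the same protein sequence at different concentrations or buffers and across linkers. Negative Z-scores can be read as non-binding.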

[2] = target: Neu5Ac(a2-8)Neu5Ac(a2-3)Gal(b1-3)GalNAc(b1-4)[Neu5Ac(a2-3)]Gal(b1-4)Glc
Method in brief: as §1

[3] = target: Neu5Ac(a2-8)Neu5Ac(a2-3)Gal(b1-3)GalNAc(b1-4)[Neu5Ac(a2-8)Neu5Ac(a2-3)]Gal(b1-4)Glc
Method in brief: as §1

[4] = target: Neu5Ac(a2-8)Neu5Ac(a2-3)Gal(b1-4)Glc
Method in brief: as §1

[5] = target: Neu5Ac(a2-8)Neu5Ac(a2-3)Gal(b1-4)GlcNAc
Method in brief: as §1

[6] = target: Neu5Ac(a2-8)Neu5Ac(a2-3)[Gal(b1-3)GalNAc(b1-4)]Gal(b1-4)Glc
Method in brief: as §1

[7] = target: Neu5Ac(a2-8)Neu5Ac(a2-3)[GalNAc(b1-4)]Gal(b1-4)Glc
Method in brief: as §1

[8] = target: Neu5Ac(a2-8)Neu5Ac(a2-8)Neu5Ac
Method in brief: as §1

[9] = target: Neu5Ac(a2-8)Neu5Ac(a2-8)Neu5Ac(a2-3)Gal(b1-4)Glc
Method in brief: as §1

[10] = target: Neu5Ac(a2-8)Neu5Ac(a2-8)Neu5Ac(a2-3)[Gal(b1-3)GalNAc(b1-4)]Gal(b1-4)Glc
Method in brief: as §1

[11] = target: Neu5Ac(a2-8)Neu5Ac(a2-8)Neu5Ac(a2-3)[GalNAc(b1-4)]Gal(b1-4)Glc
Method in brief: as §1

[12] = target: Neu5Ac(a2-8)Neu5Ac(a2-8)Neu5Ac(a2-8)Neu5Ac(a2-3)[GalNAc(b1-4)]Gal(b1-4)Glc
Method in brief: as §1

[13] = target: Neu5Ac(a2-8)Neu5Gc(a2-3)Gal(b1-4)GlcNAc
Method in brief: as §1

[14] = target: Neu5Ac(b2-6)Gal(b1-4)GlcNAc
Method in brief: as §1

[15] = target: Neu5Ac(b2-6)GalNAc
Method in brief: as §1

[16] = target: Neu5Ac9Ac(a2-3)Gal(b1-3)GlcNAc
Method in brief: as §1

[17] = target: Neu5Ac9Ac(a2-3)Gal(b1-4)GlcNAc
Method in brief: as §1

[18] = target: Neu5Ac9Ac(a2-6)Gal(b1-4)GlcNAc
Method in brief: as §1

[19] = target: Neu5Gc(a2-3)Gal(b1-3)GlcNAc
Method in brief: as §1

[20] = target: Neu5Gc(a2-3)Gal(b1-3)[Fuc(a1-4)]GlcNAc
Method in brief: as §1

[21] = target: Neu5Gc(a2-3)Gal(b1-4)Glc
Method in brief: as §1

[22] = target: Neu5Gc(a2-3)Gal(b1-4)GlcNAc
Method in brief: as §1

[23] = target: Neu5Gc(a2-3)Gal(b1-4)GlcNAc(b1-3)Gal(b1-4)GlcNAc(b1-2)Man(a1-3)[Neu5Gc(a2-3)Gal(b1-4)GlcNAc(b1-3)Gal(b1-4)GlcNAc(b1-2)Man(a1-6)]Man(b1-4)GlcNAc(b1-4)GlcNAc
Method in brief: as §1

[24] = target: Neu5Gc(a2-3)Gal(b1-4)[Fuc(a1-3)]GlcNAc
Method in brief: as §1

[25] = target: Neu5Gc(a2-6)Gal(b1-4)GlcNAc
Method in brief: as §1

[26] = target: Neu5Gc(a2-6)GalNAc
Method in brief: as §1

[27] = target: Neu5Gc(a2-8)Neu5Ac(a2-3)Gal(b1-4)GlcNAc
Method in brief: as §1

[28] = target: Neu5Gc(a2-8)Neu5Gc(a2-3)Gal(b1-4)GlcNAc
Method in brief: as §1

[29] = target: Neu5Gc(a2-8)Neu5Gc(a2-3)Gal(b1-4)GlcNAc(b1-3)Gal(b1-4)GlcNAc
Method in brief: as §1

[30] = target: Neu5Gc(a2-8)Neu5Gc(a2-6)Gal(b1-4)GlcNAc
Method in brief: as §1

[31] = target: Neu5Gc(b2-6)Gal(b1-4)GlcNAc
Method in brief: as §1

B1: HPA (Helix pomatia), Q575S3 (protein)
chain: MWAHLTGLLLICALSLSAAQRAQTGEIDCGSDSSWPKDPSDNPNRDNTREIVKHVTFSPQFCREPKVILSVTTLDAEHTKNLRYEARLKSVSPSGLSASCYSWHDGTIYRMKLSWLAVED
- glycan array binding signal (z-score) [1]: -0.262
- glycan array binding signal (z-score) [2]: -0.262
- glycan array binding signal (z-score) [3]: -0.255
- glycan array binding signal (z-score) [4]: -0.264
- glycan array binding signal (z-score) [5]: -0.258
- glycan array binding signal (z-score) [6]: -0.245
- glycan array binding signal (z-score) [7]: 0.122
- glycan array binding signal (z-score) [8]: -0.27
- glycan array binding signal (z-score) [9]: -0.265
- glycan array binding signal (z-score) [10]: -0.246
- glycan array binding signal (z-score) [11]: 0.074
- glycan array binding signal (z-score) [12]: 0.06
- glycan array binding signal (z-score) [13]: -0.264
- glycan array binding signal (z-score) [14]: -0.26
- glycan array binding signal (z-score) [15]: -0.269
- glycan array binding signal (z-score) [16]: -0.272
- glycan array binding signal (z-score) [17]: -0.24
- glycan array binding signal (z-score) [18]: -0.274
- glycan array binding signal (z-score) [19]: -0.269
- glycan array binding signal (z-score) [20]: -0.27
- glycan array binding signal (z-score) [21]: -0.255
- glycan array binding signal (z-score) [22]: -0.268
- glycan array binding signal (z-score) [23]: -0.245
- glycan array binding signal (z-score) [24]: -0.264
- glycan array binding signal (z-score) [25]: -0.264
- glycan array binding signal (z-score) [26]: -0.268
- glycan array binding signal (z-score) [27]: -0.259
- glycan array binding signal (z-score) [28]: -0.26
- glycan array binding signal (z-score) [29]: -0.266
- glycan array binding signal (z-score) [30]: -0.246
- glycan array binding signal (z-score) [31]: -0.266
